From PubChem BioAssay AID1030 (National Center for Advancing Translational Sciences (NCATS), 2008)
About 16,000 (7.3%) of roughly 220,000 compounds were called active. This list was built around the results that the source calls inconclusive (neither active nor inactive); the mix of calls is not that of the screen. Calls come from the whole dose curve; as a rule, active = well fitted inhibition curve with a large enough effect (not every such curve was filed as active); inconclusive = small, poorly fitted or top-dose-only effect, or another doubt; inactive = no such curve, though single readings can be large or run the other way. Potencies of inconclusive entries are doubtful fits and often do not repeat.

biological target: Aldehyde dehydrogenase 1A1 (Homo sapiens) (UniProt P00352); assay: qHTS Assay for Inhibitors of Aldehyde Dehydrogenase 1 (ALDH1A1); details: Purified ALDH1A1, NADH fluorescence, propionaldehyde substrate; series mostly up to 75.3 µM; activity, negative = inhibition: at the top concentration;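 for activity, negative = inhibition: plate controls were no enzyme wells and a reference inhibitor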
Potency is the fitted concentration of half-maximal effect; tags give direction and shape of the fitted curve.

Sequence of UniProt P00352 (P00352 whole entry, looked up): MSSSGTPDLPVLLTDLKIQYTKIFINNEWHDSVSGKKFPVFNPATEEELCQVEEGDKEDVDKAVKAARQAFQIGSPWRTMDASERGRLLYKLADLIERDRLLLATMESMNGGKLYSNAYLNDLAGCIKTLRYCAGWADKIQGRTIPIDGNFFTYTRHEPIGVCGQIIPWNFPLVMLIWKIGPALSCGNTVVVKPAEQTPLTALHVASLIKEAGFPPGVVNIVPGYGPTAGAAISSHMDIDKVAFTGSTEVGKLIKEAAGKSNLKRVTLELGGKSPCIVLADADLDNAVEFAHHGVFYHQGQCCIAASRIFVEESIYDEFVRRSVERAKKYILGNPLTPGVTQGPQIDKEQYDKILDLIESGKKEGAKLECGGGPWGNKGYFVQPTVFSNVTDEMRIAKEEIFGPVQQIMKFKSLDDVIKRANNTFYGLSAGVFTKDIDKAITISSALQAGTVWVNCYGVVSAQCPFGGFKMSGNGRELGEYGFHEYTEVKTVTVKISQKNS

Potency, active:
Cc1ccc2c(c1C)NC(C(=O)O)C1CC=CC21 (stereo not drawn) 12.6 µM
CC1CCc2nc(NC(=O)C3CCCO3)sc2C1 (stereo not drawn) 20 µM
CCSCCOC(=O)C1=C(C)NC(=O)NC1c1ccc2c(c1)OCO2 (stereo not drawn) 14.1 µM
O=C(NCCc1ccccc1)C1CCN(S(=O)(=O)N2CCCCCC2)CC1 7.08 µM
Cc1ccc(C2=Nc3ccccc3NC(C)(c3ccc(C)o3)C2)o1 (stereo not drawn) 22.4 µM
CCn1c(SCC(=O)N2CCN(c3cccc(Cl)c3)CC2)nc2ccccc2c1=O 28.2 µM
CC(NC(=O)c1ccc(Br)cc1)c1ccccc1 (stereo not drawn) 11.2 µM
CCCN1C(=O)/C(=C/c2c(N3CCNC(=O)C3CC(=O)OC)nc3c(C)cccn3c2=O)SC1=S (stereo not drawn) 5.01 µM

Potency, inconclusive:
CCOc1ccc(NC(=O)CSc2nnc(N)s2)c([N+](=O)[O-])c1 39.8 µM [inhibitor, single point]
CCCn1c(-c2ccc(F)cc2)nc2c(N(C)CCN(C)C)nc(C)nc21 39.8 µM [inhibitor, single point]
COc1ccc(C(C)C)cc1S(=O)(=O)Nc1ccncc1 31.6 µM [inhibitor, single point]
OCC#Cc1ncc(C(F)(F)F)cc1Cl 39.8 µM [inhibitor, single point]
O=C(CSCc1nc2ccccc2[nH]1)Nc1ccc2ccccc2c1 39.8 µM [inhibitor, single point]
c1cncc(-c2nc3c(ccc4ccccc43)[nH]2)c1 39.8 µM [inhibitor, single point]
O=C(COC(=O)c1cc(NS(=O)(=O)c2cccs2)ccc1O)Nc1cc(Cl)ccc1Cl 25.1 µM [inhibitor, partial curve]
CCOC(=O)c1oc2ccccc2c1NC(=O)CN1CCOCC1 22.4 µM [inhibitor, single point]
COC(=O)c1c(NC(=O)c2ccc(N(C)S(=O)(=O)c3ccc(C)cc3)cc2)sc2c1CCCC2 20 µM [inhibitor, partial curve]
COc1ccc(/C=N/NC(=O)c2ccc(N(C)S(=O)(=O)c3ccccc3)cc2)cc1 39.8 µM [inhibitor, single point]
COc1ccccc1NC(=O)N(Cc1ccco1)Cc1cc2ccc(C)c(C)c2[nH]c1=O 39.8 µM [inhibitor, single point]
N#Cc1ccc(NC(=O)COC(=O)CCc2ccc(S(=O)(=O)N3CCCCC3)cc2)cc1 15.8 µM [inhibitor, partial curve]
CCCN1CCc2[nH]c(=S)[nH]c(=O)c2C1 39.8 µM [inhibitor, single point]
CCOc1ccc(S(=O)(=O)N/N=C2/CCCC(=O)C2)cc1 39.8 µM [inhibitor, single point]
COc1ccc(-n2c(CCc3ccccc3)nnc2SCC(=O)c2ccc(Cl)cc2)cc1 37.7 µM [inhibitor, single point]
COC(=O)c1ccc2nc(-c3ccc4c(c3)OCO4)cn2c1 35.5 µM [inhibitor, single point]
CCc1ccc(C2CC(c3cccc(Cl)c3)n3nc(N)nc3N2)cc1 (stereo not drawn) 28.2 µM [inhibitor, partial curve]
Cc1ccccc1CNC(=O)c1ccccc1N 35.5 µM [inhibitor, partial curve]
CCC1CCCCN1C(=O)c1cc(COc2ccc3ncccc3c2)on1 (stereo not drawn) 44.7 µM [inhibitor, single point]
CN1c2ccccc2N(C)C1(C)c1ccccc1 39.8 µM [inhibitor, single point]
COc1ccc(S(=O)(=O)N2c3ccccc3OCC2C)cc1 (stereo not drawn) 39.8 µM [inhibitor, single point]
CCOC(=O)c1c(NC(=O)c2ccccc2)sc2c1CCc1ccccc1-2 25.1 µM [inhibitor, partial curve]
O=C(NCc1ccc2c(c1)OCO2)C1CCC(=O)N1C1CCCC1 (stereo not drawn) 3.16 µM [inhibitor, single point]
COc1cc2ccccc2cc1C(=O)O 20 µM [inhibitor, partial curve]
CCC(Cl)CC(Cl)C(Cl)C(Cl)C(Cl)C(C)Cl (stereo not drawn) 22.4 µM [inhibitor, single point]
Cc1c(Cl)cccc1NC(=O)COc1ccc(S(=O)(=O)N2CCOCC2)cc1 22.4 µM [inhibitor, single point]
FC(F)(F)c1cc(-c2ccc(Cl)cc2)nc(NCc2cccnc2)n1 39.8 µM [inhibitor, single point]
COc1cccc2c1C(=O)O/C2=C/c1ccc2c(c1)OCO2 35.5 µM [inhibitor, single point]
CC(=O)Nc1ccc2[nH]c(C)cc(=O)c2c1 39.8 µM [inhibitor, partial curve, poor fit]
CC12CN(C(=O)c3ccc(Cl)cc3)C3(C#N)CC1CCC23C (stereo not drawn) 25.1 µM [inhibitor, single point]

Potency, inactive:
NC(N)=NCCC[C@H](N)C(=O)O

activity, negative = inhibition, inactive:
CC(C)CC(=O)NC(=S)Nc1ccccn1 0.752%
CCNC(=O)CCSc1nc2cc(Cl)ccc2o1 5.89%
Cn1cnnc1SCC(=O)Nc1nc(-c2ccccc2)cs1 5.51%
C/C(CC(=O)NCc1ccco1)=N\NC(=O)COc1ccc(C)cc1 -10.4%
O=[N+]([O-])c1ccc(N2CCCC2)cc1NC1CC1 -2.98%
CCCC(=O)Nc1ccc2c(c1)nc(CN1CCN(C(C)=O)CC1)n2C 1.05%
CCCN1CCC(N(C)CCc2ccc(OC)c(OC)c2)CC1 4.89%
Cc1ccc2c(Cl)cc(Cl)c(OCC(=O)NC(=O)NCc3ccco3)c2n1 -9.93%
Cn1c(C(=O)N2CCc3ccccc3C2)cc2oc3ccccc3c21 -8.28%
